About 540 (0.36%) of roughly 150,000 compounds showed an effect of 50% or more. The list shows a part of the results.
test system: Plasmodium falciparum; test: Primary screen in NF54 nanoGlo assay, in single point, at 2uM, 72h; a lower Z score goes with more inhibition; assay type: functional, Erythrocyte; settings: timepoint 72 hour

First: c1ccc(CCc2noc([C@H]3CCn4ccnc4C3)n2)cc1
Second: Cc1noc(C)c1C(=O)N[C@H]1CCOC[C@@H]1OCc1ccccc1
The “% Inhibition” value of the first is lower: -3% for the first, 7% for the second.

First: O=C(CN1CCc2ncnc(N3CCOCC3)c2C1)N1CCCC1
Second: COCCN1CC[C@@]2(CCC1=O)CN(c1ncccc1F)CCN2C
The “% Inhibition” value of the first is higher: 5% for the first, -1% for the second.

First: CCC1CC(c2nc(Cc3csc(C(C)OC)n3)no2)CCO1 (stereo unspecified)
Second: Cc1nn(C)c(C)c1[C@H](C)c1nc(COCC(F)(F)C(F)F)no1
The “% Inhibition” value of the first is lower: -6% for the first, 7% for the second.

`CC(C)c1cncc(NC(=O)Cc2ccn(C)n2)c1` and `COc1ccc(NC(=O)Cn2cc(-c3nnc(C(C)C)o3)ccc2=O)cc1` are the same in “% Inhibition” value: -8% for the first, -8% for the second.

First: Cc1cnc([C@H]2CCN(S(=O)(=O)c3ccc4c(c3)CCC4)C2)n1C(C)C
Second: COc1cccc(Cn2c(C)c(CNC3CCCCCC3)c(C(=O)O)c2C)c1
The “% Inhibition” value of the first is lower: -2% for the first, 5% for the second.

Going from `CCCc1cc(CNC(=O)c2ccc(N[C@@H](C)c3nncn3C)nc2)on1` to `Cn1ccc(CCNC(=O)NCCc2c[nH]c3ccc(F)cc23)n1`, the “% Inhibition” value falls from 5% to -3%.

Going from `CC(c1nnc(-c2ccccc2F)s1)N1CCCC(N(C)C)CC1` (stereo unspecified) to `Nc1nonc1/C(=N\OC(=O)Nc1ccccc1)N1CCCCC1`, the “% Inhibition” value rises from -2% to 6%.

Compared with `O=C(Nc1ccc(O)cc1)C1CCN(C(=O)C2CC3CCC2C3)CC1` (stereo unspecified), `Cc1noc(C)c1S(=O)(=O)N1CCC[C@H]1C(=O)Nc1ccc(Oc2ccccc2)cc1` is lower in “% Inhibition” value: -10% for the first, -33% for the second.

First: Cn1cccc1-c1cc2n(n1)CCC(=O)N2CCCC(=O)NCCc1ccco1
Second: Cc1ccccc1[C@@H](NC(=O)NCCN1C(=O)CNC1=O)C(C)(C)C
The “% Inhibition” value of the first is lower: -5% for the first, 4% for the second.

Going from `O=C1CC(C2CCCCN2Cc2ccc(Br)o2)CN1` (stereo unspecified) to `CCc1oc2c(Cl)cc(NC(=O)N3C[C@@H]4CC[C@H](C3)C(=O)N4)cc2c1C`, the “% Inhibition” value rises from -7% to 3%.

First: COCC(C)NC1C2CCC(C2)C1C(=O)OCc1ccccc1 (stereo unspecified)
Second: CCC(C)C(NC(=O)OCc1ccccc1)C(=O)NC1CCN(Cc2ccccc2)CC1 (stereo unspecified)
The “% Inhibition” value of the first is higher: -3% for the first, -7% for the second.

Compared with `CCNC(=O)C1Cc2ccccc2N2CCN(c3ccc(OC)cc3)CC12` (stereo unspecified), `CCC(=O)N1CCc2cc(N3C[C@@H](C(=O)NCc4ccc(F)cc4)CC3=O)ccc21` is lower in “% Inhibition” value: 5% for the first, -1% for the second.

First: COc1cccn(CC(=O)N(Cc2cnn(C)c2)C2CCCCC2)c1=O
Second: O=C(CNCc1cccs1)NC1CCCCC1
The “% Inhibition” value of the first is higher: 5% for the first, -15% for the second.

Compared with `Cc1nnc(N(C)Cc2ccc(-n3cccn3)cc2)o1`, `O=C1COc2ccc(-n3ccnc3-c3cccc(-n4cccn4)c3)cc2N1` is lower in “% Inhibition” value: 4% for the first, -13% for the second.

Compared with `Cc1nccn1[C@@H](C)Cc1nc(-c2ccc(F)c(F)c2)n[nH]1`, `COCc1nc(-c2ccc(C)nc2)n(CCO)n1` is lower in “% Inhibition” value: 5% for the first, -7% for the second.

Compared with `CC(C)(C)c1cnc(COC(=O)c2nc(C3CC3)n3ccccc23)o1`, `CONC(=O)C1(NC2=NS(=O)(=O)c3ccccc32)CCCC1` is higher in “% Inhibition” value: -9% for the first, 0% for the second.

Compared with `c1cc(Oc2ccc3nnnn3n2)cc(-n2cncn2)c1`, `Cc1cc(-c2ccc(C(=O)N3CCCCCCC3)cc2)cnc1-n1cnnc1` is higher in “% Inhibition” value: -10% for the first, 0% for the second.

Going from `Cc1ccc(NC(C)C)c(NC(=O)CS(=O)(=O)C(C)(C)C)c1` to `Cc1ccc(C)c(C2CN(C(=O)c3cc(C)on3)C(C)CO2)c1` (stereo unspecified), the “% Inhibition” value falls from 2% to -12%.

Compared with `COc1ccc(CC(=O)Nc2ccc3c(c2)C(=O)N(C)c2cc(C)ccc2O3)cc1`, `O=C1CC[C@@H](C(=O)N(Cc2ccccc2)Cc2ccccc2)N1` is higher in “% Inhibition” value: -1% for the first, 2% for the second.

Going from `CN(C(=O)NCc1nn(C)c2cccc(Cl)c12)C1CCS(=O)(=O)CC1` to `Cc1ccc2c(Nc3cccc(Cl)c3C)c(C(=O)N3CCCCCC3)cnc2n1`, the “% Inhibition” value falls from 3% to -2%.

Going from `COCc1ccccc1C=C(C)CN1CCO[C@@H](CN2CCN(C)CC2)C1` to `CN(C)CCn1ccc(NC(=O)N(C)Cc2nccn2C(F)F)n1`, the “% Inhibition” value rises from -2% to 0%.

In the case of `O=C(Nc1cccc(-c2nnco2)c1)c1cc(F)cc(F)c1`, the “% Inhibition” value is reported as -22%.

Going from `c1ccc(CCc2noc([C@H]3CCn4ccnc4C3)n2)cc1` to `Cc1noc(C)c1C(=O)N[C@H]1CCOC[C@@H]1OCc1ccccc1`, the Z score falls from 0.45 to -0.87.

Compared with `O=C(CN1CCc2ncnc(N3CCOCC3)c2C1)N1CCCC1`, `COCCN1CC[C@@]2(CCC1=O)CN(c1ncccc1F)CCN2C` is higher in Z score: -0.58 for the first, 0.12 for the second.

First: CCC1CC(c2nc(Cc3csc(C(C)OC)n3)no2)CCO1 (stereo unspecified)
Second: Cc1nn(C)c(C)c1[C@H](C)c1nc(COCC(F)(F)C(F)F)no1
The Z score of the first is higher: 0.74 for the first, -1.23 for the second.

Going from `CC(C)c1cncc(NC(=O)Cc2ccn(C)n2)c1` to `COc1ccc(NC(=O)Cn2cc(-c3nnc(C(C)C)o3)ccc2=O)cc1`, the Z score rises from 0.94 to 1.35.

Compared with `Cc1cnc([C@H]2CCN(S(=O)(=O)c3ccc4c(c3)CCC4)C2)n1C(C)C`, `COc1cccc(Cn2c(C)c(CNC3CCCCCC3)c(C(=O)O)c2C)c1` is lower in Z score: 0.24 for the first, -0.89 for the second.

Going from `CCCc1cc(CNC(=O)c2ccc(N[C@@H](C)c3nncn3C)nc2)on1` to `Cn1ccc(CCNC(=O)NCCc2c[nH]c3ccc(F)cc23)n1`, the Z score rises from -0.69 to 0.44.

Compared with `CC(c1nnc(-c2ccccc2F)s1)N1CCCC(N(C)C)CC1` (stereo unspecified), `Nc1nonc1/C(=N\OC(=O)Nc1ccccc1)N1CCCCC1` is lower in Z score: 0.31 for the first, -0.86 for the second.

First: O=C(Nc1ccc(O)cc1)C1CCN(C(=O)C2CC3CCC2C3)CC1 (stereo unspecified)
Second: Cc1noc(C)c1S(=O)(=O)N1CCC[C@H]1C(=O)Nc1ccc(Oc2ccccc2)cc1
The Z score of the first is lower: 1.09 for the first, 3.9 for the second.

Compared with `Cn1cccc1-c1cc2n(n1)CCC(=O)N2CCCC(=O)NCCc1ccco1`, `Cc1ccccc1[C@@H](NC(=O)NCCN1C(=O)CNC1=O)C(C)(C)C` is lower in Z score: 0.96 for the first, -0.58 for the second.

Going from `O=C1CC(C2CCCCN2Cc2ccc(Br)o2)CN1` (stereo unspecified) to `CCc1oc2c(Cl)cc(NC(=O)N3C[C@@H]4CC[C@H](C3)C(=O)N4)cc2c1C`, the Z score falls from 1.14 to -0.63.

Compared with `COCC(C)NC1C2CCC(C2)C1C(=O)OCc1ccccc1` (stereo unspecified), `CCC(C)C(NC(=O)OCc1ccccc1)C(=O)NC1CCN(Cc2ccccc2)CC1` (stereo unspecified) is higher in Z score: 0.4 for the first, 1.36 for the second.

First: CCNC(=O)C1Cc2ccccc2N2CCN(c3ccc(OC)cc3)CC12 (stereo unspecified)
Second: CCC(=O)N1CCc2cc(N3C[C@@H](C(=O)NCc4ccc(F)cc4)CC3=O)ccc21
The Z score of the first is lower: -0.62 for the first, 0.14 for the second.

First: COc1cccn(CC(=O)N(Cc2cnn(C)c2)C2CCCCC2)c1=O
Second: O=C(CNCc1cccs1)NC1CCCCC1
The Z score of the first is lower: -0.68 for the first, 1.56 for the second.

Compared with `Cc1nnc(N(C)Cc2ccc(-n3cccn3)cc2)o1`, `O=C1COc2ccc(-n3ccnc3-c3cccc(-n4cccn4)c3)cc2N1` is higher in Z score: -0.55 for the first, 1.45 for the second.

Going from `Cc1nccn1[C@@H](C)Cc1nc(-c2ccc(F)c(F)c2)n[nH]1` to `COCc1nc(-c2ccc(C)nc2)n(CCO)n1`, the Z score rises from -0.74 to 1.38.

Going from `CC(C)(C)c1cnc(COC(=O)c2nc(C3CC3)n3ccccc23)o1` to `CONC(=O)C1(NC2=NS(=O)(=O)c3ccccc32)CCCC1`, the Z score falls from 1.19 to -0.05.

Compared with `c1cc(Oc2ccc3nnnn3n2)cc(-n2cncn2)c1`, `Cc1cc(-c2ccc(C(=O)N3CCCCCCC3)cc2)cnc1-n1cnnc1` is lower in Z score: 1.51 for the first, 0.05 for the second.

First: Cc1ccc(NC(C)C)c(NC(=O)CS(=O)(=O)C(C)(C)C)c1
Second: Cc1ccc(C)c(C2CN(C(=O)c3cc(C)on3)C(C)CO2)c1 (stereo unspecified)
The Z score of the first is lower: -0.2 for the first, 2.38 for the second.

Compared with `COc1ccc(CC(=O)Nc2ccc3c(c2)C(=O)N(C)c2cc(C)ccc2O3)cc1`, `O=C1CC[C@@H](C(=O)N(Cc2ccccc2)Cc2ccccc2)N1` is lower in Z score: 0.22 for the first, -0.24 for the second.

Compared with `CN(C(=O)NCc1nn(C)c2cccc(Cl)c12)C1CCS(=O)(=O)CC1`, `Cc1ccc2c(Nc3cccc(Cl)c3C)c(C(=O)N3CCCCCC3)cnc2n1` is higher in Z score: -0.41 for the first, 0.37 for the second.

First: COCc1ccccc1C=C(C)CN1CCO[C@@H](CN2CCN(C)CC2)C1
Second: CN(C)CCn1ccc(NC(=O)N(C)Cc2nccn2C(F)F)n1
The Z score of the first is higher: 0.43 for the first, 0.03 for the second.

For `O=C(Nc1cccc(-c2nnco2)c1)c1cc(F)cc(F)c1`, the Z score was 1.83.
